pEC50: −log10 of the molar value. At least one peptide structure holds a part that was inferred or is arguable (an end, a ring closure or a residue). For some of these results: For at least one compound, name, drawing or mass did not settle the structure. Numbered stars: 1 amine (or outer) side, 2 acyl side, 3 side chain; on linkers, the order of the positions; unused ones are H or OH. Side chains are listed from the residue outwards. Peptide text beside a SMILES is read from it. * marks the point of attachment. C18 diacid = O=C(O)CCCCCCCCCCCCCCCCC(=O)*; γGlu = O=C(O)[C@H](CCC(=O)[*:2])N[*:1]; AEEA = NCCOCCOCC(=O)O
How the values were obtained:
[1] = target: T1, glucagon receptor (Homo sapiens, UniProt P47871); experiment: Assay (I) Glucagon activity (cAMP biosensor, FLIPR); format: cell-based; settings: read-out: Assay(I) Glucagon [EC50]; HEK-293 cells with cloned glucagon receptor, cAMP biosensor (ACTOne)
T1 construct: expressed in transfected cells
T1 sequence (P47871 26-477): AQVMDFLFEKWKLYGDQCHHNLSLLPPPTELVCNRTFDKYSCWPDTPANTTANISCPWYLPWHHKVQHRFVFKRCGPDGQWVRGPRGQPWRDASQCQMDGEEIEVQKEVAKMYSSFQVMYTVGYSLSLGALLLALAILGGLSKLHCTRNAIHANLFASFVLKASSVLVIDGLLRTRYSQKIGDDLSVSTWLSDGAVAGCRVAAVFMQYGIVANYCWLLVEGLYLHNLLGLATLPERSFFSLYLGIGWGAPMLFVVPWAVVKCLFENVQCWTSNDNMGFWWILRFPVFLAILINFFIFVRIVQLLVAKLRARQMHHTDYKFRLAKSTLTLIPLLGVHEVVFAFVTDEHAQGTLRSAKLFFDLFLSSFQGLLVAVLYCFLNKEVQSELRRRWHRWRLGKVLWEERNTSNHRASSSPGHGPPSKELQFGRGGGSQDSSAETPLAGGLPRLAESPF
Experimental: The cells (14000 per well) were incubated (37° C., 5% CO2) overnight in 384-well plates. Next day the cells were loaded with a calcium responsive dye that only distributed into the cytoplasm. Probenecid, an inhibitor of the organic anion transporter, was added to prevent the dye from leaving the cell. A PDE inhibitor was added to prevent formatted cAMP from being degraded. The plates were placed into a […] and the glucagon analogues were added. End point data were collected after 6 minutes. An increase in intracellular cAMP was proportional to an increased in calcium concentrations in the cytoplasm. When calcium was bound the dry a fluorescence signal was generated. EC50-values were calculated in Prism5.

[2] = Assay (II) ThT fibrillation assay for physical stability; format: physicochemical; settings: pH 7.5

Row | Compound | pEC50 [1] | ThT assay [Lagtime] [2] [h]
1 | CC(C)C[C@H](NC(=O)[C@H](Cc1ccc(O)cc1)NC(=O)[C@H](CCCNC(=N)N)NC(=O)[C@H](CO)NC(=O)[C@H](Cc1ccc(O)cc1)NC(=O)[C@H](CC(=O)O)NC(=O)[C@H](CO)NC(=O)[C@@H](NC(=O)[C@H](Cc1ccccc1)NC(=O)[C@@H](NC(=O)CNC(=O)[C@H](CCC(N)=O)NC(=O)[C@H](CO)NC(=O)[C@@H](N)Cc1c[nH]cn1)[C@@H](C)O)[C@@H](C)O)C(=O)N[C@@H](CCC(=O)O)C(=O)N[C@@H](CO)C(=O)N[C@@H](CCCNC(=N)N)C(=O)N[C@@H](CCCNC(=N)N)C(=O)N[C@@H](C)C(=O)N[C@@H](CCC(N)=O)C(=O)N[C@@H](CC(=O)O)C(=O)N[C@@H](Cc1ccccc1)C(=O)N[C@H](C(=O)N[C@@H](CCCCNC(=O)CC[C@H](NC(=O)CC[C@H](NC(=O)COCCOCCNC(=O)COCCOCCNC(=O)CC[C@H](NC(=O)CCCCCCCCCCCCCCCCC(=O)O)C(=O)O)C(=O)O)C(=O)O)C(=O)N[C@@H](Cc1c[nH]c2ccccc12)C(=O)N[C@@H](CC(C)C)C(=O)N[C@@H](CC(C)C)C(=O)N[C@@H](CO)C(=O)N[C@H](C(=O)O)[C@@H](C)O)C(C)C [Example 14, N^ε24-[(4S)-4-carboxy-4-[[(4S)-4-carboxy-4-[[2-[2-[2-[[2-[2-[2-[[(4S)-4-carboxy-4-(17-carboxyheptadecanoylamino)butanoyl]amino]ethoxy]ethoxy]acetyl]amino]ethoxy]ethoxy]acetyl]amino]butanoyl]amino]butanoyl]-[Arg^12,Glu^15,Lys^24,Leu^27,Ser^25]-Glucagon] (H-HSQGTFTSDYSRYLESRRAQDFVK([γGlu-γGlu-AEEA-AEEA-γGlu-C18 diacid])WLLST-OH; N-terminus and C-terminus assumed) | 9.13 | 45
2 | CC(C)C[C@H](NC(=O)[C@H](CC(=O)O)NC(=O)[C@H](CC(C)C)NC(=O)[C@H](Cc1ccc(O)cc1)NC(=O)[C@H](CCCCN)NC(=O)[C@H](CO)NC(=O)[C@H](Cc1ccc(O)cc1)NC(=O)[C@H](CC(=O)O)NC(=O)[C@H](CO)NC(=O)[C@@H](NC(=O)[C@H](Cc1ccccc1)NC(=O)[C@@H](NC(=O)CNC(=O)[C@H](CCC(N)=O)NC(=O)[C@H](CO)NC(=O)[C@@H](N)Cc1c[nH]cn1)[C@@H](C)O)[C@@H](C)O)C(=O)N[C@@H](CCCNC(=N)N)C(=O)N[C@@H](CCCNC(=N)N)C(=O)N[C@@H](C)C(=O)N[C@@H](CCC(N)=O)C(=O)N[C@@H](CC(=O)O)C(=O)N[C@@H](Cc1ccccc1)C(=O)N[C@H](C(=O)N[C@@H](CCCCNC(=O)CC[C@H](NC(=O)CC[C@H](NC(=O)COCCOCCNC(=O)COCCOCCNC(=O)CC[C@H](NC(=O)CCCCCCCCCCCCCCCCC(=O)O)C(=O)O)C(=O)O)C(=O)O)C(=O)N[C@@H](Cc1c[nH]c2ccccc12)C(=O)N[C@@H](CC(C)C)C(=O)N[C@@H](CC(C)C)C(=O)N[C@@H](CO)C(=O)N[C@H](C(=O)O)[C@@H](C)O)C(C)C [Example 13, N^ε24-[(4S)-4-carboxy-4-[[(4S)-4-carboxy-4-[[2-[2-[2-[[2-[2-[2-[[(4S)-4-carboxy-4-(17-carboxyheptadecanoylamino)butanoyl]amino]ethoxy]ethoxy]acetyl]amino]ethoxy]ethoxy]acetyl]amino]butanoyl]amino]butanoyl]-[Leu^16,Lys^24,Leu^27,Ser^25]-Glucagon] (H-HSQGTFTSDYSKYLDLRRAQDFVK([γGlu-γGlu-AEEA-AEEA-γGlu-C18 diacid])WLLST-OH; N-terminus and C-terminus assumed) | 9.87 | 45
3 | CC(C)C[C@H](NC(=O)[C@H](Cc1c[nH]c2ccccc12)NC(=O)[C@H](CCCCNC(=O)CC[C@H](NC(=O)CC[C@H](NC(=O)COCCOCCNC(=O)COCCOCCNC(=O)CC[C@H](NC(=O)CCCCCCCCCCCCCCCCC(=O)O)C(=O)O)C(=O)O)C(=O)O)NC(=O)[C@@H](NC(=O)[C@H](Cc1ccccc1)NC(=O)[C@H](CC(=O)O)NC(=O)[C@H](CCC(N)=O)NC(=O)[C@H](C)NC(=O)[C@H](CCCNC(=N)N)NC(=O)[C@H](CCCNC(=N)N)NC(=O)[C@@H](NC(=O)[C@H](CC(=O)O)NC(=O)[C@H](CC(C)C)NC(=O)[C@H](Cc1ccc(O)cc1)NC(=O)[C@H](CCCCN)NC(=O)[C@H](CO)NC(=O)[C@H](Cc1ccc(O)cc1)NC(=O)[C@H](CC(=O)O)NC(=O)[C@H](CO)NC(=O)[C@@H](NC(=O)[C@H](Cc1ccccc1)NC(=O)[C@@H](NC(=O)CNC(=O)[C@H](CCC(N)=O)NC(=O)[C@H](CO)NC(=O)[C@@H](N)Cc1c[nH]cn1)[C@@H](C)O)[C@@H](C)O)[C@@H](C)O)C(C)C)C(=O)N[C@@H](CC(C)C)C(=O)N[C@@H](CO)C(=O)N[C@H](C(=O)O)[C@@H](C)O [Example 12, N^ε24-[(4S)-4-carboxy-4-[[(4S)-4-carboxy-4-[[2-[2-[2-[[2-[2-[2-[[(4S)-4-carboxy-4-(17-carboxyheptadecanoylamino)butanoyl]amino]ethoxy]ethoxy]acetyl]amino]ethoxy]ethoxy]acetyl]amino]butanoyl]amino]butanoyl]-[Thr^16,Lys^24,Leu^27,Ser^28]-Glucagon] | – | 45
4 | CC[C@H](C)[C@H](NC(=O)[C@H](CC(N)=O)NC(=O)[C@H](CC(C)C)NC(=O)[C@H](CC(C)C)NC(=O)[C@H](Cc1c[nH]c2ccccc12)NC(=O)[C@H](CCCCNC(=O)CC[C@H](NC(=O)COCCOCCNC(=O)COCCOCCNC(=O)CC[C@H](NC(=O)CCCCCCCCCCCCCCCCC(=O)O)C(=O)O)C(=O)O)NC(=O)[C@@H](NC(=O)[C@H](Cc1ccccc1)NC(=O)[C@H](CC(=O)O)NC(=O)[C@H](CCC(N)=O)NC(=O)[C@H](C)NC(=O)[C@H](CCCNC(=N)N)NC(=O)[C@H](CCCNC(=N)N)NC(=O)[C@@H](NC(=O)[C@H](CC(=O)O)NC(=O)[C@H](CC(C)C)NC(=O)[C@H](Cc1ccc(O)cc1)NC(=O)[C@H](CCCCN)NC(=O)[C@H](CO)NC(=O)[C@H](Cc1ccc(O)cc1)NC(=O)[C@H](CC(=O)O)NC(=O)[C@H](CO)NC(=O)[C@@H](NC(=O)[C@H](Cc1ccccc1)NC(=O)[C@@H](NC(=O)CNC(=O)[C@H](CCC(N)=O)NC(=O)[C@H](CO)NC(=O)[C@@H](N)Cc1c[nH]cn1)[C@@H](C)O)[C@@H](C)O)[C@@H](C)O)C(C)C)C(=O)O [Example 35, N^ε24-[(4S)-4-carboxy-4-[[2-[2-[2-[[2-[2-[2-[[(4S)-4-carboxy-4-(17-carboxyheptadecanoylamino)butanoyl]amino]ethoxy]ethoxy]acetyl]amino]ethoxy]ethoxy]acetyl]amino]butanoyl]-[Thr16,Lys24,Leu27,Ile29]-Glucagon] | – | 45
5 | CC(C)C[C@H](NC(=O)[C@H](Cc1ccc(O)cc1)NC(=O)[C@H](CCCNC(=N)N)NC(=O)[C@H](CO)NC(=O)[C@H](Cc1ccc(O)cc1)NC(=O)[C@H](CC(=O)O)NC(=O)[C@H](CO)NC(=O)[C@@H](NC(=O)[C@H](Cc1ccccc1)NC(=O)[C@@H](NC(=O)CNC(=O)[C@H](CCC(N)=O)NC(=O)[C@H](CO)NC(=O)[C@@H](N)Cc1c[nH]cn1)[C@@H](C)O)[C@@H](C)O)C(=O)N[C@@H](CC(=O)O)C(=O)N[C@@H](CCC(=O)O)C(=O)N[C@@H](CCCNC(=N)N)C(=O)N[C@@H](CCCNC(=N)N)C(=O)N[C@@H](C)C(=O)N[C@@H](CCC(N)=O)C(=O)N[C@@H](CC(=O)O)C(=O)N[C@@H](Cc1ccccc1)C(=O)N[C@H](C(=O)N[C@@H](CCCCNC(=O)CC[C@H](NC(=O)CC[C@H](NC(=O)COCCOCCNC(=O)COCCOCCNC(=O)CC[C@H](NC(=O)CCCCCCCCCCCCCCCCC(=O)O)C(=O)O)C(=O)O)C(=O)O)C(=O)N[C@@H](Cc1c[nH]c2ccccc12)C(=O)N[C@@H](CC(C)C)C(=O)N[C@@H](CC(C)C)C(=O)N[C@@H](CO)C(=O)N[C@H](C(=O)O)[C@@H](C)O)C(C)C [Example 42, N^ε24-[(4S)-4-carboxy-4-[[(4S)-4-carboxy-4-[[2-[2-[2-[[2-[2-[2-[[(4S)-4-carboxy-4-(17-carboxyheptadecanoylamino)butanoyl]amino]ethoxy]ethoxy]acetyl]amino]ethoxy]ethoxy]acetyl]amino]butanoyl]amino]butanoyl]-[Arg12,Glu16,Lys24,Leu27,Ser28]-Glucagon] (H-HSQGTFTSDYSRYLDERRAQDFVK([γGlu-γGlu-AEEA-AEEA-γGlu-C18 diacid])WLLST-OH) | – | 6
